Residue numbers refer to the chain shown, from its start. No constants are given. Whether binding was seen depends on the method and setting. In cells and extracts the contact can be indirect. Some entries that bind do so weakly or less than the wild type. For some assays here: Where a sequence is shown, tags or fusion partners need not be part of it. Each block holds one substance with its values, some of them ahead of it.
Assays:
[1] = biological target: T1, HA-epitope tagged Cbl-c, full length (UniProt Q9ULV8); assay: co-IP; HEK293T cells co-transfected; 200 µg lysate protein; HA-tagged Cbl proteins precipitated with HA-affinity matrix overnight at 4°C; lysis buffer 10 mM Tris-HCl pH 7.5, 150 mM NaCl, 5 mM EDTA, 1% Triton X-100, 10% glycerol; blot for Hic-5 or Trip-6
T1 sequence: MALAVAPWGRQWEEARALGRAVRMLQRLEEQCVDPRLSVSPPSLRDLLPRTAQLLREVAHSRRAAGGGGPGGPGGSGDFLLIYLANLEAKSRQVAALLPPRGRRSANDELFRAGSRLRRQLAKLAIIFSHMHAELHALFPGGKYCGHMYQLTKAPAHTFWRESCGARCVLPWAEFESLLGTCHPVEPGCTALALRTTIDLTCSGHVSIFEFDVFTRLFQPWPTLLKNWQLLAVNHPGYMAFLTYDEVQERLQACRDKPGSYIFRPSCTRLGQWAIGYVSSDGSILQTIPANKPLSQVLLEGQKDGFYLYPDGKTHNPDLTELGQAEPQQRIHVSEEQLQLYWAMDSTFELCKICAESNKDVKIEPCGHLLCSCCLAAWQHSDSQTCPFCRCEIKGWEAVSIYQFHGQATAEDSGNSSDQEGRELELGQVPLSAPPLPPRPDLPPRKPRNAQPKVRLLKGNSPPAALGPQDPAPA

Protein sequences, listed by entry. Tags and fused reporters are not part of them.
UniProt Q13191: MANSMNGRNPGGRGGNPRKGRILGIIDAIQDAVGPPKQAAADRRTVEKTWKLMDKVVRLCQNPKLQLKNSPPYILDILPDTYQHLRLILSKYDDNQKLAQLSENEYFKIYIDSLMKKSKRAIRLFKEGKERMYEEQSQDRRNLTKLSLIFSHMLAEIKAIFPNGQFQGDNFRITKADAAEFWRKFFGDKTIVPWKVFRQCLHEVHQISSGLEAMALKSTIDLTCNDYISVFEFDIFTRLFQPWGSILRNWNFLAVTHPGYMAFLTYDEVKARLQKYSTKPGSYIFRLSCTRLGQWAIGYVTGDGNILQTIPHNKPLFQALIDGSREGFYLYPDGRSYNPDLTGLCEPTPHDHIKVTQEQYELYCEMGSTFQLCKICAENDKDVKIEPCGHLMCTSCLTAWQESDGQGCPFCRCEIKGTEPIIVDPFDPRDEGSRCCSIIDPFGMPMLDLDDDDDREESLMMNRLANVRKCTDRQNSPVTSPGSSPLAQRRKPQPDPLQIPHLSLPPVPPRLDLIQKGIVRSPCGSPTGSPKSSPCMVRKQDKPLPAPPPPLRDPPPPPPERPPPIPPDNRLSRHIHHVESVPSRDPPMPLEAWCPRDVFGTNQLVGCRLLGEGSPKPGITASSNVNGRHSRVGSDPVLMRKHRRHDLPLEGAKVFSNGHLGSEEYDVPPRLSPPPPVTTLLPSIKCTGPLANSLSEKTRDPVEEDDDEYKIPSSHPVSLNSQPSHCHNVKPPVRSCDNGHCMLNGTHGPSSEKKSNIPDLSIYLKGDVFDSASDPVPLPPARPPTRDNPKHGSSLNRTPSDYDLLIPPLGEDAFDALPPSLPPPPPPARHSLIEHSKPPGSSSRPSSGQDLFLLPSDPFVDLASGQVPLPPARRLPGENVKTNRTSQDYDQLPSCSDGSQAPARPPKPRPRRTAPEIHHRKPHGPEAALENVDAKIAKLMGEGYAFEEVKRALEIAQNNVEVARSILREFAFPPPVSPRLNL

[2] = biological target: T2, endogenous Cbl-c (human (endogenous in CFPAC-1)) (UniProt Q9ULV8); assay: co-IP; endogenous proteins; 2000 µg lysate protein; rabbit polyclonal anti-Cbl-c antibody and Protein A/G+ agarose overnight at 4°C; CFPAC-1 cells, with cells lacking Cbl-c as control; blot for Cbl-c and Hic-5
T2 sequence: T1 sequence

[3] = biological target: HA-epitope tagged Cbl, full length (UniProt P22681); assay: co-IP; HEK293T cells co-transfected; 200 µg lysate protein; HA-tagged Cbl proteins precipitated with HA-affinity matrix overnight at 4°C; lysis buffer 10 mM Tris-HCl pH 7.5, 150 mM NaCl, 5 mM EDTA, 1% Triton X-100, 10% glycerol; blot for Hic-5 or Trip-6
[4] = biological target: T3, HA-epitope tagged Cbl-c C366A (UniProt Q9ULV8); assay: as above
T3 sequence: T1 sequence with C366A

[5] = biological target: T4, HA-epitope tagged Cbl-c ΔRF (UniProt Q9ULV8); assay: as above
T4 sequence: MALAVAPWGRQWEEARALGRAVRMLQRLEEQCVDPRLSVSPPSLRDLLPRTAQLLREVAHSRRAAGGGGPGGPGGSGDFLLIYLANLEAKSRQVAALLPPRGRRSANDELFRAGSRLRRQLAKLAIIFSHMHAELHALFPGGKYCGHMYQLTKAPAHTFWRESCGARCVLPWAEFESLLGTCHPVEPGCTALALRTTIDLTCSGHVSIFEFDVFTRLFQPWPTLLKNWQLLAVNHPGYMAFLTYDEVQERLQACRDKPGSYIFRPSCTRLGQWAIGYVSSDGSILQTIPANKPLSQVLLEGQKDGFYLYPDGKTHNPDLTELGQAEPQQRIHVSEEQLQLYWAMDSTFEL

[6] = biological target: T5, HA-epitope tagged Cbl-c Short (UniProt Q9ULV8); assay: as above
T5 sequence: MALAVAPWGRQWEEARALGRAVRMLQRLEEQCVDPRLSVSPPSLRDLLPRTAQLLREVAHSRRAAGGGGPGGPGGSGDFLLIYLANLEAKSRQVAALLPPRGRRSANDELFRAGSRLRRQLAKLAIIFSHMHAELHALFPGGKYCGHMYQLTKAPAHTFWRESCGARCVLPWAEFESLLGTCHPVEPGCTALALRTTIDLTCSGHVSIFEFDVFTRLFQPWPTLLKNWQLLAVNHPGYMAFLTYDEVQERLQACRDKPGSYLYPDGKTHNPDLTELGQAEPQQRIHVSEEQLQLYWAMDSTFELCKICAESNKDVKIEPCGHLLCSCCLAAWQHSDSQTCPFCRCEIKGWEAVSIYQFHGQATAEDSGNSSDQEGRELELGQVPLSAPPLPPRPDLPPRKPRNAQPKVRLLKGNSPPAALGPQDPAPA

[7] = biological target: HA-epitope tagged Cbl-b, full length (UniProt Q13191); assay: as above
[8] = biological target: T6, HA-epitope tagged Cbl-c C351A (UniProt Q9ULV8); assay: as above
T6 sequence: T1 sequence with C351A

[9] = biological target: T7, HA-epitope tagged Cbl-c C351A C366A double mutant (UniProt Q9ULV8); assay: as above
T7 sequence: T1 sequence with C351A, C366A

binding [1]: no binding
Substance: Hic-5 C287A (pCMV-Hic-5 mutant) (from UniProt O43294 1-461)

binding [2]: binds
Substance: endogenous Hic-5 (from UniProt O43294 1-461)

binding [3]: no binding | binding [4]: no binding | binding [5]: no binding | binding [6]: binds | binding [7]: no binding | binding [1]: binds | binding [8]: binds | binding [9]: no binding
Substance: Hic-5, full-length cDNA (pCMV-Hic-5) (from UniProt O43294 1-461)

binding [1]: binds
Substance: Hic-5 C313A (pCMV-Hic-5 mutant) (from UniProt O43294 1-461)

From paper PMC3492284
